Reference: article PMC2828485
No constants are given. Whether binding was seen depends on the method and setting. Binding seen in cells or lysates may run through a third protein. Some results given as binding are weak or reduced against the parent protein; the word gives no strength. One block for each substance: values may come before it.

Sequences of proteins named here, by UniProt entry; tags and fusion partners are left off.
UniProt Q08024: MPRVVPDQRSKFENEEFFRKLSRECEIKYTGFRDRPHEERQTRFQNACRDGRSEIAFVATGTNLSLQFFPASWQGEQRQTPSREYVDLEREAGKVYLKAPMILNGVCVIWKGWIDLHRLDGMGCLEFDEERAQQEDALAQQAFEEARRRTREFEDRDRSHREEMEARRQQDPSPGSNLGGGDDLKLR
UniProt Q03347: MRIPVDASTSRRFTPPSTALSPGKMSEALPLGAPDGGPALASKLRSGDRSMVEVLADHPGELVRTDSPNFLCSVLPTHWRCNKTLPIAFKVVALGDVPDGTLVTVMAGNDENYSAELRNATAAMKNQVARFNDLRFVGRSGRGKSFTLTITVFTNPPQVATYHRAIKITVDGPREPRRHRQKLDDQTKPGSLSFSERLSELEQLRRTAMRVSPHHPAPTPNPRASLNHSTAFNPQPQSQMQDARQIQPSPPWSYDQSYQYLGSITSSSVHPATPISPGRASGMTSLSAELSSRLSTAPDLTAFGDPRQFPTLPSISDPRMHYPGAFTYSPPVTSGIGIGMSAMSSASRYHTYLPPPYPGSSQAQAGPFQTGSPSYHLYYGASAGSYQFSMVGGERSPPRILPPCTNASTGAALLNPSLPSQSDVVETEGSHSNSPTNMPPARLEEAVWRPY
UniProt P70288: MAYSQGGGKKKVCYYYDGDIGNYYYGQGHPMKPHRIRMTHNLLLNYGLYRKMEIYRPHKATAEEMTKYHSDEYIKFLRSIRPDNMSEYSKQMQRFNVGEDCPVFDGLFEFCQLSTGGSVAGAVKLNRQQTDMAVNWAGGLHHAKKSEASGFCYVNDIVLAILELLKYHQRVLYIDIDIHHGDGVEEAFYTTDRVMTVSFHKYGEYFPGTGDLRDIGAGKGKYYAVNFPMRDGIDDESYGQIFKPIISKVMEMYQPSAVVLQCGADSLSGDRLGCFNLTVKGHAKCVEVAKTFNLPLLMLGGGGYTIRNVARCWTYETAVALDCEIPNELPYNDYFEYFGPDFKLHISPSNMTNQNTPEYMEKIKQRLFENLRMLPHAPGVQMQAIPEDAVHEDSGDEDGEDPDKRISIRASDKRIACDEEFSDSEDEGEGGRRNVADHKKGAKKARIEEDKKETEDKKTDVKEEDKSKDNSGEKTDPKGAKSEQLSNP
UniProt Q01196: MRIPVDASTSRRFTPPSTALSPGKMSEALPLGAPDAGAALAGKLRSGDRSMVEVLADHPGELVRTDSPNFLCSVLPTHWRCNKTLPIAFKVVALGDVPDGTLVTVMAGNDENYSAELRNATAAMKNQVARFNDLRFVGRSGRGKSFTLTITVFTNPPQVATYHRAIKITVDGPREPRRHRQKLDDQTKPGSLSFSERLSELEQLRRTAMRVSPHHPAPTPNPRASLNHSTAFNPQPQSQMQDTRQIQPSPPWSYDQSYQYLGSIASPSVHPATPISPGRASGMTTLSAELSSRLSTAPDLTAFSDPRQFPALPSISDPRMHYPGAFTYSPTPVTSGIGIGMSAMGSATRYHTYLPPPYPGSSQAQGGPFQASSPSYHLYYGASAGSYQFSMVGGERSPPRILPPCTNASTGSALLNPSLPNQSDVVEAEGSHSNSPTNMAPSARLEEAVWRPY
UniProt O09106: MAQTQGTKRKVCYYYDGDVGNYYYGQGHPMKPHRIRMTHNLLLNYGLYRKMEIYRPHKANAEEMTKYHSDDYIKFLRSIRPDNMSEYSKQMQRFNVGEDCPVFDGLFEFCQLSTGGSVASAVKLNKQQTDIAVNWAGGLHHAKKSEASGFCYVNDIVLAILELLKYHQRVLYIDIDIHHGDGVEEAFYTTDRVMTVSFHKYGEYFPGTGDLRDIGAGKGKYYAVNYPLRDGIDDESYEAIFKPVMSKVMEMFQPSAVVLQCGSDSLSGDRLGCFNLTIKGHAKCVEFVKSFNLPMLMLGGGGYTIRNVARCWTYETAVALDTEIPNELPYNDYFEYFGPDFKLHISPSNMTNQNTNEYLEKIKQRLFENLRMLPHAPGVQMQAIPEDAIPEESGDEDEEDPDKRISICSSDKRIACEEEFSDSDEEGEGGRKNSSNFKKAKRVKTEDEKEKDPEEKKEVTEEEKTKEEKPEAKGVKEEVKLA
UniProt P83917: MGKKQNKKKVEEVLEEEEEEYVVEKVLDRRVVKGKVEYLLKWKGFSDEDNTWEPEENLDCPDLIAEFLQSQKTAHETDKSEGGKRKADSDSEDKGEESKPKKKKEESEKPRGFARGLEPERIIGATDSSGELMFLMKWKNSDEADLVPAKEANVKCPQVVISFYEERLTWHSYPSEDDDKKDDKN
UniProt P08659: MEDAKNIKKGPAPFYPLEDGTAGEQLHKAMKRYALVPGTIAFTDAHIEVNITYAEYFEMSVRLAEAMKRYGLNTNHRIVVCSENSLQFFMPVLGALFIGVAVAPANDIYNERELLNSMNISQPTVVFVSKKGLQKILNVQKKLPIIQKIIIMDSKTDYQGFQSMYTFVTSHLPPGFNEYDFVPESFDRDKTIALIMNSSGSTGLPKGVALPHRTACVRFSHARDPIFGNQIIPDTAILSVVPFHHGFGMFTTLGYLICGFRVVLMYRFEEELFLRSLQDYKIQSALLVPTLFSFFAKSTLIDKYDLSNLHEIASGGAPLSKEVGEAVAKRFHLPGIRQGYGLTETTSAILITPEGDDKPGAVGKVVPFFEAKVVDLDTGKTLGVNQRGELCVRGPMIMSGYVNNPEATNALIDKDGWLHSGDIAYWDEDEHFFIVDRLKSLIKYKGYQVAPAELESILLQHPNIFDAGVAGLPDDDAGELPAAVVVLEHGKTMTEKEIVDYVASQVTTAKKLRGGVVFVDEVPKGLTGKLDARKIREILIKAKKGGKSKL

Assays:
[1] = molecular target: Flag-HA-CBFβ (stably expressed in C2C12) (mouse) (UniProt Q08024); assay: co-IP; simple-affinity purification on Flag resin of Flag-HA-CBFβ from proliferating C2C12-CBFβ cells (3 g pellet) against C2C12 control cells; western blot
[2] = molecular target: T1, Myf5 (endogenous, C2C12) (mouse (endogenous in C2C12)) (UniProt P24699); assay: co-IP; endogenous proteins, nuclear extracts of proliferating C2C12 myoblasts (compared with differentiating ones); IP with anti-MyoD or anti-Myf5, beads or normal rabbit IgG as controls; western blot for CBFβ
T1 sequence: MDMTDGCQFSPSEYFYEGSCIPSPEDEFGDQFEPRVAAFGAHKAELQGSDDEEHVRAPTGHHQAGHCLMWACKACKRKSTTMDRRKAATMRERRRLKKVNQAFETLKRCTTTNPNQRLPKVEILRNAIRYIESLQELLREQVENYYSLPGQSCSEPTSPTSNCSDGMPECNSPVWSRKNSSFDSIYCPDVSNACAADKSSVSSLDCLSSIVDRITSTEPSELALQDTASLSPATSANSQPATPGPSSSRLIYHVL

Flag-HA-MyoD = Flag-HA-MyoD (UniProt P10085); assay: co-IP; double-affinity purified Flag-HA-MyoD complex from HeLa (soluble and chromatin-associated fractions) against mock eluate, western blot
GST-MyoD = GST-MyoD (UniProt P10085); assay: pull-down; GST or GST-MyoD (1 µg) on agarose beads with 10 µL of one 35S-labelled TNT reaction; 50 mM Tris pH 7.6, 150 mM NaCl, 0.1% Triton, 2 h 4°C; washes 300 mM NaCl, 0.5% Triton; autoradiography; only the target purified
3HA-MyoD Nter 1-66 = molecular target: T2, 3HA-MyoD Nter 1-66 (UniProt P10085); assay: co-IP; HEK 293 co-transfected with pCMV-3HA-MyoD or a deletion mutant, pcDNA3-Runx1 and pcDNA3-CBFβ; lysis 48 h later in 300 mM NaCl, 50 mM Tris-HCl pH 7.5, 0.4% NP-40, 10 mM MgCl2; anti-HA IP; western blot
T2 sequence: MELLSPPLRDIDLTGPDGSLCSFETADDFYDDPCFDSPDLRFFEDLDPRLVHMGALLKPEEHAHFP

3HA-MyoD ΔCter 1-240 = 3HA-MyoD ΔCter 1-240 (UniProt P10085); assay: as above
3HA-MyoD bHLH 82-172 = 3HA-MyoD bHLH 82-172 (UniProt P10085); assay: as above
3HA-MyoD Cter 241-318 = molecular target: T3, 3HA-MyoD Cter 241-318 (UniProt P10085); assay: as above
T3 sequence: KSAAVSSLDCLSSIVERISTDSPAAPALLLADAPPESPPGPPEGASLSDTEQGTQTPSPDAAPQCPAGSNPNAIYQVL

[3] = molecular target: 3HA-MyoD wild-type (pCMV-3HA-MyoD) (UniProt P10085); assay: as above
3HA-MyoD ΔNter 82-318 = 3HA-MyoD ΔNter 82-318 (UniProt P10085); assay: as above
[4] = molecular target: Flag-HA-CBFβ (stably expressed in HeLa) (mouse) (UniProt Q08024); assay: co-IP; Flag M2 resin IP of Flag-HA-CBFβ from 1.5 mg nuclear extract of HeLa-CBFβ cells 24 h after transfection of HA-MyoD and/or HA-Runx1; overnight 4°C; washes in TEGN (150 mM NaCl, 0.5% NP-40); Flag peptide elution; anti-HA western blot

binding [1]: binds
Substance: Runx1 (endogenous, C2C12) (from UniProt Q03347 1-451)

binding [2]: binds
Substance: CBFβ (endogenous, C2C12) (from UniProt Q08024 1-187)

binding [1]: binds
Substance: HDAC2 (endogenous, C2C12) (from UniProt P70288 1-488) (enzyme)

binding (Flag-HA-MyoD): binds
Substance: Runx1 (endogenous, HeLa) (from UniProt Q01196 1-453)

binding [1]: binds
Substance: HDAC1 (endogenous, C2C12) (from UniProt O09106 1-482) (enzyme)

binding [1]: binds
Substance: HP1β (endogenous, C2C12) (from UniProt P83917 1-185)

binding (GST-MyoD): no binding
Substance: luciferase (in vitro translated) (from UniProt P08659 1-550) (enzyme)

binding (3HA-MyoD Nter 1-66): no binding | binding (3HA-MyoD ΔCter 1-240): no binding | binding (3HA-MyoD bHLH 82-172): no binding | binding (3HA-MyoD Cter 241-318): no binding
Substance: CBFβ (pcDNA3-CBFβ, expressed in HEK 293) (from UniProt Q08024 1-187)

binding (GST-MyoD): binds
Substance: Runx1 (in vitro translated from pcDNA3-Runx1) (from UniProt Q01196 1-453)

binding [3]: binds | binding (3HA-MyoD Nter 1-66): no binding | binding (3HA-MyoD ΔCter 1-240): no binding | binding (3HA-MyoD ΔNter 82-318): binds | binding (3HA-MyoD bHLH 82-172): no binding | binding (3HA-MyoD Cter 241-318): no binding
Substance: Runx1 (pcDNA3-Runx1, expressed in HEK 293) (from UniProt Q01196 1-453)

binding [4]: binds
Substance: HA-tagged Runx1 (pRcCMV-HA-Runx1) (from UniProt Q01196 1-453)
